The list shows a part of the results. At the low end of the ranking the order means little.

For this test, the target named is SIX1 homeodomain (reference allele) (UniProt Q15475). Description: universal protein binding microarray. The settings on record: Universal all-10-mer PBM (8x60K, AMADID 030236), 300 nM GST-tagged protein, Alexa Fluor 488 anti-GST; buffer, salt, pH and temperature not stated; high values mean tight binding; most listed sequences are background and not binding sites; double strand, one strand shown.
Regarding ATCAAGCC, the binding signal turned out to be 0.0374 E-score.
The value for GTGAAATA was 0.159 E-score.
Consider CCCAGTCC, for which the binding signal is -0.0155 E-score.
Regarding GAATATGC, the binding signal is -0.104 E-score.
Turning to CTTGTTAA, the binding signal was -0.153 E-score.
Regarding TCCACGCA, the binding signal is -0.0189 E-score.
Regarding AAACTATC, the binding signal turned out to be 0.0862 E-score.
In the case of ACGGATTG, the binding signal came to 0.179 E-score.
For ATAAAGTA, the binding signal worked out at 0.104 E-score.
Turning to CCCTGATA, the binding signal is 0.36 E-score.
On to GTGCAATA, for which the binding signal is -0.0945 E-score.
Consider ACGTGCCC, for which the binding signal was -0.111 E-score.
For the sequence CACGCCTA, the binding signal was -0.211 E-score.
Turning to AGAATAGC, the binding signal is -0.0838 E-score.
The value for CACTTAGG was 0.00877 E-score.
The value for AGACGGGC was 0.14 E-score.
Turning to AGCGCAGC, the binding signal was -0.211 E-score.
The value for CTCAGAAA was -0.0957 E-score.
For the sequence AGTTAAAC, the binding signal was -0.0742 E-score.
As for GACAAAAC, the binding signal is -0.255 E-score.
Regarding AGCACTAA, the binding signal is -0.0968 E-score.
As for GAAGACCC, the binding signal is -0.19 E-score.
Consider CCGTGTTC, for which the binding signal came out at 0.155 E-score.
CCCTAGGG: the binding signal is -0.134 E-score.
As for CAACTGAC, the binding signal was -0.201 E-score.
As for ACGTACCC, the binding signal was found to be 0.143 E-score.
Turning to AGCGTCTA, the binding signal was -0.0463 E-score.
Take AAAATGGA: the binding signal is -0.0815 E-score.
As for CTCCTGCC, the binding signal is -0.0145 E-score.
Consider GCCCCAGA, for which the binding signal is -0.0688 E-score.
Turning to CCAGGGAA, the binding signal was -0.278 E-score.
For the sequence GAGCGGAA, the binding signal is -0.0988 E-score.
Consider TCCACAGA, for which the binding signal came out at 0.0821 E-score.
In the case of AGCTTCAA, the binding signal was -0.115 E-score.
In the case of CAGGGGCG, the binding signal is -0.017 E-score.
With CCCGATAG, the binding signal came to 0.205 E-score.
As for CCCTCAAG, the binding signal came to 0.0889 E-score.
For CCGTGAGC, the binding signal was -0.0849 E-score.
For the sequence AACGTTCT, the binding signal is -0.106 E-score.
The value for CCCAGTTA was 0.122 E-score; that for AACGGGCT was -0.225 E-score.
As for CGCCCGCA, the binding signal was -0.0595 E-score.
The value for CGCCCTCC was -0.00369 E-score; that for CGGATCTC was 0.342 E-score.
Consider AGGCGGGA, for which the binding signal came to 0.0418 E-score.
CCTAATTA: the binding signal is -0.129 E-score.
For CCCCCCCA, the binding signal amounted to 0.0163 E-score.
For the sequence CCGTCAAC, the binding signal was -0.19 E-score.
Turning to CTGGCCCC, the binding signal was -0.0179 E-score.
On to CAAAGTAA, for which the binding signal is -0.229 E-score.
The value for ACCGGCCT was -0.217 E-score; that for GTTGTCCA was -0.212 E-score; that for ACTTAGAT was 0.164 E-score.
In the case of ACAGGTAC, the binding signal is -0.0272 E-score.
For the sequence GTTGGTGA, the binding signal was -0.115 E-score.
The value for TATAGCAA was 0.0737 E-score.
Consider AGTCTATA, for which the binding signal was 0.0401 E-score.
Consider GCCAAACA, for which the binding signal is -0.257 E-score.
ACCTTGCA: the binding signal was determined as 0.0625 E-score.
GTGCAAAA: the binding signal is -0.0971 E-score.
The value for TCGTCTAA was -0.0542 E-score; that for ACGGACGC was -0.321 E-score; that for ACGTTGCA was -0.154 E-score.
In the case of GGGAGAAC, the binding signal is -0.0801 E-score.
The value for ATAACTTA was -0.021 E-score; that for GCCTCGAC was -0.105 E-score; that for CTACAGCC was -0.173 E-score.
For the sequence ATACAAAG, the binding signal turned out to be 0.0766 E-score.
Take GCACTGCC: the binding signal was -0.162 E-score.
With AGAGCGCA, the binding signal was -0.0695 E-score.
Take AGCTTATC: the binding signal is 0.0649 E-score.
Regarding CGTACGGC, the binding signal is -0.00038 E-score.
With GGGATCAC, the binding signal stood at 0.445 E-score.
The value for GTACTCAC was -0.0158 E-score; that for ACGGCTCA was 0.128 E-score; that for ATTCCGGG was 0.0498 E-score.
The value for ACTATATC was 0.367 E-score.
Turning to ATGGAATA, the binding signal amounted to 0.171 E-score.
As to AAAGTTCC, the binding signal was -0.343 E-score.
Regarding ACGGCATC, the binding signal was -0.0794 E-score.
With AGTCGCCA, the binding signal is -0.202 E-score.
The value for CGTTGTTC was -0.234 E-score; that for AAGTGCAC was -0.183 E-score.
Take AAAAATCT: the binding signal is -0.186 E-score.
In the case of AAGACGCG, the binding signal was -0.0652 E-score.
Consider CGTAGGAC, for which the binding signal was -0.0408 E-score.
The value for AGACAAAC was -0.0778 E-score.
The value for CGACTCCA was 0.0717 E-score; that for ACCGGAAT was 0.0349 E-score.
Regarding AGTATGTA, the binding signal turned out to be 0.0608 E-score.
AATATGGT: the binding signal came to 0.177 E-score.
For TATTCAAA, the binding signal is 0.121 E-score.
With AGAGTCGA, the binding signal is -0.107 E-score.
For the sequence TAAACAGA, the binding signal was -0.213 E-score.
Take GCTATCTA: the binding signal was determined as 0.169 E-score.
In the case of CCCGGAGA, the binding signal was 0.169 E-score.
AGTCGTAC: the binding signal is -0.214 E-score.
As to TACGGTCA, the binding signal is -0.00978 E-score.
For CCTCGGGC, the binding signal was -0.112 E-score.
On to ACCGGTGC, for which the binding signal was -0.0854 E-score.
In the case of ACCATCGG, the binding signal amounted to 0.0183 E-score.
Take GATCCCTA: the binding signal came out at 0.383 E-score.
AGAGGGGG: the binding signal amounted to 0.0205 E-score.
The value for ATATGCAT was 0.269 E-score.
For ATGAGAGC, the binding signal is -0.0611 E-score.
As for ACTACGAT, the binding signal came out at 0.167 E-score.
Take GAAGAATA: the binding signal came out at 0.00835 E-score.
The value for GGACAGCC was 0.0364 E-score; that for ACAAGACG was 0.0907 E-score.
Take ACGCCGTA: the binding signal is -0.0195 E-score.
Turning to ACTGTGAC, the binding signal was -0.167 E-score.
As to GGTCGCTA, the binding signal was -0.176 E-score.
As to GGTTACAA, the binding signal was -0.0718 E-score.
Regarding ACAACACC, the binding signal was found to be 0.23 E-score.
For AGCTTAAA, the binding signal is -0.211 E-score.
Consider GACGCAGA, for which the binding signal was -0.0313 E-score.
Take CTATGTTA: the binding signal was -0.153 E-score.
The value for CCCTGTCG was -0.0644 E-score; that for GACCGCAA was -0.0619 E-score; that for CACTGTTA was -0.0329 E-score.
On to ACAAGAGC, for which the binding signal was -0.146 E-score.
On to CCATGCCA, for which the binding signal is -0.0298 E-score.
In the case of CATACCAA, the binding signal is 0.0132 E-score.
In the case of AGTCATCC, the binding signal is -0.0168 E-score.
With CAGTGTGG, the binding signal was -0.124 E-score.
Take GACTAGAC: the binding signal was -0.0753 E-score.
The value for CAGTGGCC was -0.24 E-score; that for GATGCTTA was -0.109 E-score.
Take TAACATAA: the binding signal was 0.0412 E-score.
For the sequence CCAGCAAA, the binding signal was found to be 0.0567 E-score.
In the case of CCTTATCA, the binding signal stood at 0.12 E-score.
Take ACTATTGG: the binding signal was -0.253 E-score.
On to GCGTACGA, for which the binding signal was -0.2 E-score.
The value for CGGGCGCC was -0.243 E-score; that for ATAATCTA was 0.148 E-score; that for CCTAGCAG was -0.0966 E-score.
For CCACACTA, the binding signal is -0.0224 E-score.
As to CACCAATA, the binding signal is 0.101 E-score.
For the sequence AAAGTGTC, the binding signal worked out at 0.134 E-score.
The value for GCAGGAAC was -0.193 E-score; that for ATTTCACC was -0.0602 E-score; that for ACGTTACT was -0.158 E-score.
The value for CTATACTA was 0.168 E-score; that for GTACAACA was -0.0812 E-score; that for CAGCATTA was -0.109 E-score.
For CCTGTTCG, the binding signal was -0.184 E-score.
As for CGCGGCTC, the binding signal is -0.0224 E-score.
As to GGCAAGCC, the binding signal was -0.356 E-score.
For the sequence AAGAGATG, the binding signal worked out at 0.114 E-score.
Turning to TATGAACA, the binding signal came to 0.0466 E-score.
For the sequence AGACAGTA, the binding signal was -0.00248 E-score.
The value for TCGATCAA was -0.236 E-score.
As to TCAACGGA, the binding signal is -0.0228 E-score.
On to AATTAGTC, for which the binding signal was -0.0591 E-score.
For ATCCTAAT, the binding signal came to 0.159 E-score.
The value for CTGACCTC was -0.208 E-score; that for CAACTTAA was -0.217 E-score.
CTCTTCGA: the binding signal came to 0.062 E-score.
On to AGGTAGGA, for which the binding signal is -0.037 E-score.
Take GAACGACC: the binding signal is -0.161 E-score.
Take CCCCTGCG: the binding signal was -0.0865 E-score.
In the case of ATGTTACA, the binding signal is -0.0749 E-score.
Regarding ATAGGATC, the binding signal turned out to be 0.367 E-score.
The value for GCCCATAC was 0.0867 E-score; that for AGCGTCAC was -0.236 E-score; that for AGAACTAG was -0.155 E-score.
As to CCCCACTC, the binding signal is 0.0317 E-score.
The value for GCAACACA was -0.242 E-score; that for CGATCTTC was 0.288 E-score.
Regarding AAGTCTAT, the binding signal is -0.233 E-score.
Take GACGAACC: the binding signal is 0.0379 E-score.
As for GCCCCGGC, the binding signal is -0.0441 E-score.
